# In the supplement of paper PMC8728848:
# This is one part of the list.
# What was measured:
# Experiment in all cases: glycan array binding signal (z-score within array); higher = stronger binding
# Details in all cases: glycan notation: IUPAC condensed, linker removed
# GlcNAc(b1-3)Man = target: GlcNAc(b1-3)Man
# Outline: (§1)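 Glycan array data were curated from 3228 arrays in the Consortium for Functional Glycomics database and kept only where the protein sequence was available. Glycan names were converted to IUPAC-condensed notation, and columns mapping to the same glycan were averaged. The binding signal is a within-array Z-score, averaged across arrays of the same protein sequence at different concentrations or buffers and across linkers. Negative Z-scores can be read as non-binding.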
# [1] = target: GlcNAc(b1-3)[GlcNAc(b1-4)][GlcNAc(b1-6)]GlcNAc
# Outline: as §1
# [2] = target: GlcNAc(b1-3)[GlcNAc(b1-6)]Gal(b1-4)GlcNAc
# Outline: as §1
# [3] = target: GlcNAc(b1-3)[GlcNAc(b1-6)]GalNAc
# Outline: as §1
# [4] = target: GlcNAc(b1-4)Gal(b1-4)GlcNAc
# Outline: as §1
# GlcNAc(b1-4)GlcNAc = target: GlcNAc(b1-4)GlcNAc
# Outline: as §1
# [5] = target: GlcNAc(b1-4)GlcNAc(b1-4)GlcNAc
# Outline: as §1
# [6] = target: GlcNAc(b1-4)GlcNAc(b1-4)GlcNAc(b1-4)GlcNAc(b1-4)GlcNAc
# Outline: as §1
# [7] = target: GlcNAc(b1-4)GlcNAc(b1-4)GlcNAc(b1-4)GlcNAc(b1-4)GlcNAc(b1-4)GlcNAc
# Outline: as §1
# [8] = target: GlcNAc(b1-4)[GlcNAc(b1-6)]GalNAc
# Outline: as §1
# [9] = target: GlcNAc(b1-6)Gal(b1-4)GlcNAc
# Outline: as §1
# GlcNAc(b1-6)GalNAc = target: GlcNAc(b1-6)GalNAc
# Outline: as §1
# [10] = target: GlcNAc6S(b1-3)Gal(b1-4)GlcNAc
# Outline: as §1
# Kdn(a2-3)Gal(b1-3)GalNAc = target: Kdn(a2-3)Gal(b1-3)GalNAc
# Outline: as §1
# Kdn(a2-3)Gal(b1-3)GlcNAc = target: Kdn(a2-3)Gal(b1-3)GlcNAc
# Outline: as §1
# Kdn(a2-3)Gal(b1-4)Glc = target: Kdn(a2-3)Gal(b1-4)Glc
# Outline: as §1
# Kdn(a2-3)Gal(b1-4)GlcNAc = target: Kdn(a2-3)Gal(b1-4)GlcNAc
# Outline: as §1
# [11] = target: Kdn(a2-3)Gal(b1-4)[Fuc(a1-3)]GlcNAc
# Outline: as §1
# Kdn(a2-6)Gal(b1-4)GlcNAc = target: Kdn(a2-6)Gal(b1-4)GlcNAc
# Outline: as §1
# [12] = target: Man(a1-2)Man(a1-2)Man(a1-3)Man
# Outline: as §1
# [13] = target: Man(a1-2)Man(a1-2)Man(a1-6)[Man(a1-3)]Man
# Outline: as §1
# Man(a1-2)Man(a1-3)Man = target: Man(a1-2)Man(a1-3)Man
# Outline: as §1
# [14] = target: Man(a1-2)Man(a1-3)[Man(a1-2)Man(a1-6)]Man
# Outline: as §1
# [15] = target: Man(a1-2)Man(a1-3)[Man(a1-2)Man(a1-6)]Man(a1-6)[Man(a1-2)Man(a1-2)Man(a1-3)]Man
# Outline: as §1
# [16] = target: Man(a1-2)Man(a1-3)[Man(a1-2)Man(a1-6)]Man(a1-6)[Man(a1-2)Man(a1-2)Man(a1-3)]Man(b1-4)GlcNAc(b1-4)GlcNAc
# Outline: as §1
# [17] = target: Man(a1-2)Man(a1-3)[Man(a1-6)]Man(a1-6)[Man(a1-2)Man(a1-3)]Man(b1-4)GlcNAc(b1-4)GlcNAc
# Outline: as §1
# [18] = target: Man(a1-2)Man(a1-6)[Man(a1-3)]Man(a1-6)[Man(a1-2)Man(a1-2)Man(a1-3)]Man
# Outline: as §1
# [19] = target: Man(a1-2)Man(a1-6)[Man(a1-3)]Man(a1-6)[Man(a1-2)Man(a1-2)Man(a1-3)]Man(b1-4)GlcNAc(b1-4)GlcNAc
# Outline: as §1
# Man(a1-3)[Man(a1-6)]Man = target: Man(a1-3)[Man(a1-6)]Man
# Outline: as §1
# [20] = target: Man(a1-3)[Man(a1-6)]Man(a1-6)[Man(a1-2)Man(a1-3)]Man(b1-4)GlcNAc(b1-4)GlcNAc
# Outline: as §1
# [21] = target: Man(a1-3)[Man(a1-6)]Man(a1-6)[Man(a1-3)]Man
# Outline: as §1
# [22] = target: Man(a1-3)[Man(a1-6)]Man(a1-6)[Man(a1-3)]Man(b1-4)GlcNAc(b1-4)GlcNAc
# Outline: as §1
# [23] = target: Man(a1-3)[Man(a1-6)]Man(b1-4)GlcNAc(b1-4)GlcNAc
# Outline: as §1
# [24] = target: Man(a1-3)[Man(a1-6)]Man(b1-4)GlcNAc(b1-4)[Fuc(a1-6)]GlcNAc
# Outline: as §1
# Man(a1-6)Man = target: Man(a1-6)Man
# Outline: as §1
# Man(b1-4)GlcNAc = target: Man(b1-4)GlcNAc
# Outline: as §1
# MurNAc(b1-4)GlcNAc = target: MurNAc(b1-4)GlcNAc
# Outline: as §1
# Neu5Ac(a2-3)Gal = target: Neu5Ac(a2-3)Gal
# Outline: as §1
binder,measurement,setting,value
Epa3to1 (Candida glabrata) (protein) MGSSHHHHHHSSGLVPRGSHMKRELSSQNPFGYPIGCSPQDVAIIPGLTMELYSYPIVSGTPPNCYDASYVDPEYPRTGYLKRKMVGKSTGVTGNLNYKYSVEKACMVKYGNLPAGYNYNEPLTVSNFTMILYGYFKAQTTGLHTFFVNADDLLYINFGAGNAFDCCKREDSKTKLGEYVAYDIWHVDSSKNKVSLFLEKDLYYPIRMFFNNREYDSSLDLSFSVNGATDQISDFSGYLYSVPDQPDTCPAHIGYDTTCR,glycan array binding signal (z-score),GlcNAc(b1-3)Man,0.203
same,glycan array binding signal (z-score),[1],-0.188
same,glycan array binding signal (z-score),[2],0.014
same,glycan array binding signal (z-score),[3],-0.653
same,glycan array binding signal (z-score),[4],0.507
same,glycan array binding signal (z-score),GlcNAc(b1-4)GlcNAc,0.066
same,glycan array binding signal (z-score),[5],-0.73
same,glycan array binding signal (z-score),[6],4.95
same,glycan array binding signal (z-score),[7],-0.596
same,glycan array binding signal (z-score),[8],-0.662
same,glycan array binding signal (z-score),[9],-0.13
same,glycan array binding signal (z-score),GlcNAc(b1-6)GalNAc,-0.403
same,glycan array binding signal (z-score),[10],0.276
same,glycan array binding signal (z-score),Kdn(a2-3)Gal(b1-3)GalNAc,0.402
same,glycan array binding signal (z-score),Kdn(a2-3)Gal(b1-3)GlcNAc,0.242
same,glycan array binding signal (z-score),Kdn(a2-3)Gal(b1-4)Glc,-0.072
same,glycan array binding signal (z-score),Kdn(a2-3)Gal(b1-4)GlcNAc,-0.323
same,glycan array binding signal (z-score),[11],0.515
same,glycan array binding signal (z-score),Kdn(a2-6)Gal(b1-4)GlcNAc,0.532
same,glycan array binding signal (z-score),[12],-0.251
same,glycan array binding signal (z-score),[13],0.788
same,glycan array binding signal (z-score),Man(a1-2)Man(a1-3)Man,-0.708
same,glycan array binding signal (z-score),[14],-1.26
same,glycan array binding signal (z-score),[15],-0.102
same,glycan array binding signal (z-score),[16],-0.413
same,glycan array binding signal (z-score),[17],-0.818
same,glycan array binding signal (z-score),[18],-1.04
same,glycan array binding signal (z-score),[19],0.206
same,glycan array binding signal (z-score),Man(a1-3)[Man(a1-6)]Man,-0.058
same,glycan array binding signal (z-score),[20],0.637
same,glycan array binding signal (z-score),[21],-0.11
same,glycan array binding signal (z-score),[22],0.273
same,glycan array binding signal (z-score),[23],-0.496
same,glycan array binding signal (z-score),[24],-0.326
same,glycan array binding signal (z-score),Man(a1-6)Man,0.759
same,glycan array binding signal (z-score),Man(b1-4)GlcNAc,0.076
same,glycan array binding signal (z-score),MurNAc(b1-4)GlcNAc,-0.371
same,glycan array binding signal (z-score),Neu5Ac(a2-3)Gal,-0.383
